Values joined by “and” are separate entries in the source; they are usually repeats but may differ in a detail not shown here. Equal entries are not always repeated. The whole screen tested about 420,000 compounds, of which about 50,000 (12%) were called active. Inconclusive results, whose numbers are uncertain, are shown with a selection of clear calls. The call rests on the fitted dose curve; in most records, active means well fitted inhibition curve with a large enough effect; inconclusive means small, poorly fitted or top-dose-only effect; inactive means flat fitted curve, though single readings scatter. A potency beside an inconclusive call is a rough fit, not a confirmed value.
experiment: qHTS for Inhibitors of human tyrosyl-DNA phosphodiesterase 1 (TDP1): qHTS in cells in presence of CPT; conditions: chicken DT40 Tdp1-/-;hTDP1 cells + 20 nM CPT, ATP luminescence, 48 h; activity change, negative = growth inhibition: at 46.2 µM (top of the series) unless noted; further: nearly all actives have a fitted effect of over 55% in size
How it was run: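 Chicken DT40 Tdp1-/- cells stably complemented with human TDP1 were seeded at 400 cells/well in medium containing 20 nM camptothecin, exposed to pin-transferred compounds, and grown at 37 °C for at least 48 hr. Viability was read as ATP luminescence.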
On the % scale 0 is the no-effect control and ±100 the full control effect; potency means the concentration at half of the fitted maximal effect; tags describe the fitted curve by direction and shape.

Row | SMILES | Potency | activity change, negative = growth inhibition
1 | CC[C@]12c3[nH]c4ccc(OC)cc4c3CCN1C(=O)C(CC(=O)NC/C=C(\C)CCC=C(C)C)C[C@@H]2C(=O)N1CCN(C(=O)C2CC2)CC1 (stereo not given in full) | inconclusive: 29.1 µM [inhibitor, partial curve, poor fit] | 
2 | O=C(CSc1nc(-c2ccccc2)nc2ccccc12)Nc1cccc(C(=O)O)c1 | inconclusive: 29.1 µM [inhibitor, single point] | 
3 | CCN(CC)CCNC(=O)c1ccc(NC(=O)/C=C/c2ccc3ccccc3n2)cc1 | inconclusive: 20.6 µM [inhibitor, single point] | 
4 | CCCC(C)n1[nH]c(=O)c2c(C)cc(C)nc21 (stereo not given) | inconclusive: 0.651 µM [inhibitor, single point] | 
5 | O=C(NCCN1CCN(c2cccc(Cl)c2)CC1)Nc1ccccc1 | inconclusive: 25.9 µM [inhibitor, single point] and inconclusive: 23.1 µM [inhibitor, single point] | 
6 | CCc1ccc(NC(=O)c2ccc(-c3ccccc3)s2)cc1 | inactive | 
7 | COCCn1c(SCc2nc3ccccc3c(=O)[nH]2)nc2ccccc2c1=O | inconclusive: 29.1 µM [inhibitor, single point] | 
8 | CCC(CC)CN1CCC(CN2C(=O)C(=O)NC[C@@H]2[C@@H](C)CC)CC1 | inactive | 
9 | CC(NS(=O)(=O)c1ccc(Br)cc1)C(c1cccs1)N1CCOCC1 (stereo not given) | active: 18.4 µM | 
10 | COc1ccc(-c2sc3ccc(N4CCOCC4)cc3c2-c2ccc(OC)c(F)c2)cc1 | inconclusive: 29.1 µM [inhibitor, single point] | 
11 | CCn1c(C)nc2cc(C(=O)N/N=C/c3cccc(O)c3O)ccc21 | active: 14.6 µM | 
12 | O=C(COc1ccccc1Cl)Nc1nc(-c2ccncc2)cs1 | active: 14.6 µM | 
13 | Cc1ccc(NC(=O)CSc2nnc3ccc4ccccc4n23)cc1 | inactive | 
14 | CC(C)N(C(=S)NC1CC2CCC1C2)c1ccccc1 (stereo not given) | inconclusive: 29.1 µM [inhibitor, single point] | 
15 | C=CCc1ccc(OCCn2cncn2)c(OC)c1 | inactive | 
16 | COc1cccc(NC(=O)COc2cccc3c2CCNC3=O)c1 | inconclusive: 23.1 µM [inhibitor, single point] | 
17 | Cc1cccc(C(=O)NCC(c2ccco2)S(=O)(=O)c2cccs2)c1 (stereo not given) | inconclusive: 29.1 µM [inhibitor, single point] | 
18 | CCCCC(=O)O[C@@]1(C(=O)CO)C(C)CC2C3CCC4=CC(=O)C=C[C@@]4(C)[C@]3(F)C(O)C[C@]21C (stereo not given in full) | inactive | 
19 | COc1ccc(OCCCc2c(C)n[nH]c2C)cc1 | inconclusive: 23.1 µM [inhibitor, partial curve] | 
20 | CC(C)(C)c1ccc(C(=O)N/N=C/c2cccc(Cl)c2)cc1 | inconclusive: 20.6 µM [inhibitor, single point] | 
21 | CC(=O)Nc1nc2cc3c(cc2s1)OCCO3 | inconclusive: 29.1 µM [inhibitor, single point] | 
22 | CN(C)c1ccc(C2CC(c3cccc(NS(C)(=O)=O)c3)=NN2C(=O)c2ccccc2)cc1 (stereo not given) | inactive | 
23 | CCOC(=O)c1ccc(NC(=O)c2nc[nH]c2C(=O)N2CCc3ccccc3C2)cc1 | active: 11.6 µM | 

Row | SMILES | Potency | activity change, negative = growth inhibition
24 | C[C@H](CO)N1C[C@H](C)[C@@H](CN(C)C(=O)Nc2ccccc2)Oc2ccc(NS(=O)(=O)c3ccc(F)cc3)cc2C1=O | inactive | 
25 | O=C(CCCc1c[nH]c2ccccc12)NCc1ccccc1C(F)(F)F | inactive | 
26 | Cc1ccc(OCC(=O)N2N=C(c3ccncc3)CC2(O)C(F)(F)F)cc1C (stereo not given) | inconclusive: 29.1 µM [inhibitor, single point] | 
27 | CN(CC(=O)Nc1ccccc1Cl)CC(=O)Nc1cccc2ccccc12 | inconclusive: 20.6 µM [inhibitor, single point] | 
28 | N#Cc1ccc(C2=CC(=O)C[C@H](c3ccc(F)cc3)C2)cc1 |  | inconclusive: -31.9% [inhibitor]
29 | Cc1nc2nc(-c3ccccc3)cc(=O)n2[nH]1 | inconclusive: 25.9 µM [inhibitor, single point] | 
30 | CCc1cnc2c(c1SCC(=O)NCc1ccccc1Cl)c(=O)n(C)c(=O)n2C | inactive | 
31 | CC(C)(C)c1ccc(-c2ccc3c(c2)S(=O)(=O)c2ccccc2C3=O)cc1 | inconclusive: 13 µM [inhibitor, partial curve, poor fit] | 
32 | O=C(Nc1cccc(S(=O)(=O)C(F)(F)F)c1)[C@H]1C[C@H](O)[C@@H](CO)O1 | inactive | 
33 | CCOC(=O)N1CCC(N2Cc3cccc(C(=O)Nc4c(C)cccc4CC)c3C2=O)CC1 | inconclusive: 16.4 µM [inhibitor, single point] | 
34 | Cc1cccc(NC(=O)c2ccc(-c3ccccc3)s2)c1 | inconclusive: 32.6 µM [inhibitor, single point] | 
35 | COc1ccc(CN2CN(S(=O)(=O)c3ccccc3)c3nc4ccccc4nc32)cc1 | inconclusive: 16.4 µM [inhibitor, single point] | 
36 | CC(C)[C@H](NC(=O)c1ccccc1F)C(=O)OCC(=O)NC1CC1 | inactive | 
37 | CSCCC(NC(=O)COc1ccccc1)C(=O)NCC(C)(C)N1CCOCC1 (stereo not given) | inactive | 
38 | COC(=O)c1c(NC(=O)c2ccc(S(=O)(=O)N3CCC(C)CC3)cc2)sc2c1CCN(C)C2 | inconclusive: 23.1 µM [inhibitor, single point] | 
39 | Cc1cc(N2CC(C)OC(C)C2)nc2ccccc12 (stereo not given) | inactive | 
40 | COc1cc2ccccc2cc1C(=O)Nc1cccc(-c2nc3cc(C)c(C)cc3o2)c1 | inconclusive: 10.3 µM [inhibitor, single point] | 
41 | NC(=O)CC(NC(=O)OCc1ccccc1)C(=O)O (stereo not given) | inactive | 
42 | CC1Cc2ccccc2N1C(=O)Cn1cnc2ccccc21 (stereo not given) | inconclusive: 18.4 µM [inhibitor, partial curve, poor fit] | 
43 | CC1(C)CC(Cc2ccccc2C(F)(F)F)N(C(=O)OC(C)(C)C)C1 (stereo not given) | inconclusive: 29.1 µM [inhibitor, single point] | 
44 | Cc1ccc2c(c1)N(C(=O)CCC(=O)N1CCN(c3cccc(C)c3C)CC1)CCO2 | active: 16.4 µM | 
45 | Cc1cccc(N(C)C(=O)CCS(=O)(=O)c2cc3c(cc2Cl)NC(=O)CO3)c1 | inactive | 
